According to PubChem BioAssay AID588591 (National Center for Advancing Translational Sciences (NCATS), 2011):
Several values for one entry are separate records, joined by “and”; a condition that tells them apart may be missing. Identical values can stand only once. About 4,700 (1.2%) of roughly 390,000 compounds were called active. Inconclusive results, whose numbers are uncertain, are shown with a selection of clear calls. The call rests on the fitted dose curve; in most records, active means well fitted inhibition curve with a large enough effect; inconclusive means small, poorly fitted or top-dose-only effect, or another doubt; inactive means no such curve, though single readings can be large or run the other way. A potency beside an inconclusive call is a rough fit, not a confirmed value.
On the % scale 0 is the no-effect control and ±100 the full control effect; potency means the concentration at half of the fitted maximal effect; tags describe the fitted curve by direction and shape.

The molecules below were run against DNA polymerase eta (Homo sapiens) (UniProt Q9Y253) (assay: qHTS for Inhibitors of Polymerase Eta). Conditions: recombinant Pol eta, fluorescent DNA replication assay; series mostly up to 114 µM; activity change, negative = inhibition: at the top concentration.
UniProt Q9Y253, sequence (Q9Y253 whole entry, looked up): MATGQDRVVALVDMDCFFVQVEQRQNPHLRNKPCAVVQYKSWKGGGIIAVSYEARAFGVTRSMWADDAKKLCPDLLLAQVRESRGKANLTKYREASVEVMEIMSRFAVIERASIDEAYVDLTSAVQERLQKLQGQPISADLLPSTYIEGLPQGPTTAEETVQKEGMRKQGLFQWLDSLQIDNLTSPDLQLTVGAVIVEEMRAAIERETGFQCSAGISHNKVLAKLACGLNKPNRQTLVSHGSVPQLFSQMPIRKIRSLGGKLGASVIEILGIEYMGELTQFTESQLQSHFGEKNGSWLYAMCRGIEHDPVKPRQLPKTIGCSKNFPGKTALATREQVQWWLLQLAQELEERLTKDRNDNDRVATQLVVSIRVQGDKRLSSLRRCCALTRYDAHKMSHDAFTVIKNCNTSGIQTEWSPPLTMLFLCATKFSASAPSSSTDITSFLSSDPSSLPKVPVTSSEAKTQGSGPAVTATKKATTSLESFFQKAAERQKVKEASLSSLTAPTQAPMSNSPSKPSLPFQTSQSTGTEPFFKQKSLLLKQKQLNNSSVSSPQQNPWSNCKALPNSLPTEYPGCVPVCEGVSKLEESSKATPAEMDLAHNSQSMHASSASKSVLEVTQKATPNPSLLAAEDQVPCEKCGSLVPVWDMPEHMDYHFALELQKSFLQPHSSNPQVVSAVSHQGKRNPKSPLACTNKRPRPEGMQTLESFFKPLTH
Summary of the method: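 Pol eta at 10 nM preincubated with compounds 15 min at room temperature; reaction started with fluorescent substrate (50 nM final) and read kinetically at 0 and 10 min.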
In the case of `Cc1cccc(N2CCN(C(=O)c3ccc4nc(-c5ccco5)c(-c5ccco5)nc4c3)CC2C)c1` (configuration not stated), the Potency is reported as inconclusive: 31.6 µM [inhibitor, single point]. `Clc1cccc(-n2ncc3c(NC4CCCCC4)ncnc32)c1` was tested, and the “activity change, negative = inhibition” value was inactive: -18.5%. In the case of `O=C(O)c1cc(N2N=C(C(F)(F)F)/C(=C/C=C/c3ccco3)C2=O)ccc1Cl`, the “activity change, negative = inhibition” value is reported as inactive: -98.9%. `O=C(Nc1ccccc1F)c1nc(S(=O)(=O)Cc2ccccc2F)ncc1Cl` was tested, and the Potency was inconclusive: 100 µM [inhibitor, partial curve, poor fit]. `COCCCNC(=O)Cn1c(=O)n(Cc2ccc(C(=O)NCc3ccc(C)cc3)cc2)c(=O)c2ccccc21` was tested, and the Potency was inconclusive: 100 µM [inhibitor, single point]. With `NS(=O)(=O)c1ccc(Nc2nc(-c3ccc(O)cc3O)cs2)cc1` the Potency was inconclusive: 31.6 µM [inhibitor, partial curve, poor fit]. In the case of `COc1ccc2c(c1)c(C(=O)CN1CCN(c3ccccc3)CC1)c(C)n2C`, the Potency is reported as inconclusive: 89.1 µM [inhibitor, partial curve, poor fit]. For `CC(=O)Nc1ccc(NC2=CC(=O)c3ccccc3C2=O)cc1`, the Potency was inconclusive: 22.4 µM [inhibitor, partial curve, poor fit]. With `Cc1ccc(S(=O)(=O)N(CC(=O)Nc2ccccc2C(=O)O)c2cccc(Cl)c2C)cc1` the Potency was inconclusive: 15.8 µM [inhibitor, full curve, poor fit]. With `COc1ccc(OC)c2nc3c(C(=O)NCCN(C)C)cccc3nc12` the Potency was inconclusive: 11.2 µM [inhibitor, partial curve, poor fit]. In the case of `O=C(Cc1ccc(F)cc1)NC1CC(=O)N(c2ccc3c(c2)OCCO3)C1` (configuration not stated), the “activity change, negative = inhibition” value is reported as inactive: -10.5%. In the case of `CC(C)n1cc(C#N)c(N)n1`, the Potency is reported as inconclusive: 5.01 µM [inhibitor, partial curve, poor fit]. `COC(=O)c1cc(NC(=O)c2oc(=O)c3ccccc3c2-c2ccccc2)cc(C(=O)OC)c1` was tested, and the “activity change, negative = inhibition” value was inactive: -13.1%. With `O=c1[nH]c(=O)n(CCCc2ccccc2)cc1-c1ccccc1` the Potency was inconclusive: 50.1 µM [inhibitor, partial curve, poor fit]. In the case of `Cc1ccc2[nH]c(=O)c(C3C(C#N)=C(N)Oc4c3ccc3cccnc43)cc2c1` (configuration not stated), the Potency is reported as inconclusive: 20 µM [inhibitor, full curve]. For `CCCC(c1nnnn1C(C)(C)CC)N(Cc1ccco1)Cc1cc2ccc(OC)cc2[nH]c1=O` (configuration not stated), the Potency was inconclusive: 44.7 µM [inhibitor, partial curve, poor fit]. With `Cc1ccccc1NC(=S)N(CCN(C)C)C(C)c1ccco1` (configuration not stated) the Potency was inconclusive: 31.6 µM [inhibitor, partial curve, poor fit]. `COc1ccc(CCNC(=O)CCCn2c(=O)c3ccccc3n(Cc3ccccc3)c2=O)cc1OC` was tested, and the “activity change, negative = inhibition” value was inactive: -6.52%. In the case of `COCCCNC(=O)C1CCN(Cc2cc3ccccc3n2Cc2cccc(C)c2)CC1`, the “activity change, negative = inhibition” value is reported as inactive: -18.4%. With `Cc1ccc(NC(=O)COc2ccc(-n3cnnn3)cc2)cc1C` the Potency was inconclusive: 39.8 µM [inhibitor, partial curve, poor fit]. In the case of `COc1ccc(-c2nnc(SCC(=O)N3CCC(C)CC3)o2)cc1`, the “activity change, negative = inhibition” value is reported as inactive: -16.6%. `COc1ccc(CNC(=O)CCS(=O)(=O)c2ccc(Br)cc2)cc1` was tested, and the Potency was inconclusive: 44.7 µM [inhibitor, partial curve]. With `CC(C(=O)Nc1cc([N+](=O)[O-])ccc1Cl)N1CCN(c2ccc(O)cc2)CC1` (configuration not stated) the Potency was inconclusive: 11.2 µM [inhibitor, full curve, poor fit]. `Cc1ccc2cc3c(N)c4c(C)ccc(C)c4nc3nc2c1` was tested, and the Potency was inconclusive: 28.2 µM [inhibitor, single point]. For `COc1cc(CC(=O)C(=O)O)oc(=O)c1`, the Potency was inconclusive: 20 µM [inhibitor, full curve, poor fit]. `CCc1ccc(CNC(=O)C2CCCN(c3nnc(C)c4c(C)n(-c5ccccc5)nc34)C2)cc1` (configuration not stated) was tested, and the Potency was inconclusive: 100 µM [inhibitor, single point] and inconclusive: 89.1 µM [inhibitor, partial curve, poor fit]. `CCN1CCN(Cc2ccc(NC(=O)c3ccc(C)c(/C=C/c4cnc(Nc5cc(N6CCNCC6)nc(C)n5)cn4)c3)cc2C(F)(F)F)CC1` was tested, and the Potency was active: 79.4 µM. `O[C@H]1C[C@H](c2ccc(Cl)cc2)N(Cc2cccs2)C[C@@H]1n1cc(-c2ccc(F)cc2)nn1` was tested, and the “activity change, negative = inhibition” value was inactive: -29.1%. With `Cc1c(N=C2C=C(Br)C(=O)C(Br)=C2)c(=O)n(-c2ccccc2)n1C` the Potency was inconclusive: 22.4 µM [inhibitor, full curve]. With `CC(Sc1nc(C(C)(C)C)cc(-c2ccccc2)c1C#N)C(=O)Nc1ccccc1` (configuration not stated) the “activity change, negative = inhibition” value was inactive: -9.14%. In the case of `Cc1c(OCC(N)=O)ccc2c(-c3ccccc3)cc(=O)oc12`, the Potency is reported as inconclusive: 20 µM [inhibitor, full curve, poor fit]. With `CCC1(c2ccccc2)SC(N)=NC1=O` (configuration not stated) the “activity change, negative = inhibition” value was inactive: -3.76%. With `Cc1c(C2(O)CCCCC2)[nH]c2cc(C(F)(F)F)ccc12` the Potency was inconclusive: 50.1 µM [inhibitor, partial curve, poor fit]. With `Cc1noc(C)c1COc1cccc(C(=O)OCC(=O)NC(=O)c2ccc(OC(F)F)cc2)c1` the Potency was inconclusive: 25.1 µM [inhibitor, partial curve]. With `COc1ccc(NC(=O)c2ccco2)cc1NC(=O)c1cc(Cl)ccc1OC` the Potency was active: 89.1 µM. For `Cc1ccc(-n2cccc2/C=C2/NC(=O)N(CC(=O)Nc3cccc(C)c3)C2=O)cc1`, the “activity change, negative = inhibition” value was inactive: -16.4%. `N#CC(C#N)=C(Nc1ccc(F)cc1)SCc1cccc(Br)c1` was tested, and the Potency was inconclusive: 50.1 µM [inhibitor, partial curve, poor fit]. With `Cc1ccc(CSc2nnc(SCC(=O)N/N=C/C=C/c3ccco3)s2)cc1` the Potency was inconclusive: 20 µM [inhibitor, partial curve, poor fit]. `O=C(CSc1ncccc1C(=O)Oc1ccccc1Cl)Nc1ccc(C(F)(F)F)cc1Cl` was tested, and the “activity change, negative = inhibition” value was inactive: -14.5%. For `C/C(CCC(C)C)=N\Nc1cc(C)c2ccccc2n1`, the Potency was inconclusive: 39.8 µM [inhibitor, partial curve, poor fit]. In the case of `CC(=O)c1c(C)[nH]c(C)c1C(C)=O`, the “activity change, negative = inhibition” value is reported as inactive: 5%. `CCC(C)NCCOCCOc1ccc(Cl)c(C)c1C` (configuration not stated) was tested, and the Potency was inconclusive: 79.4 µM [inhibitor, partial curve, poor fit]. `CSC1=NC(=O)/C(=C\c2cccc3ccccc23)S1` was tested, and the “activity change, negative = inhibition” value was inactive: -16.5%. For `CC(C)CS(=O)(=O)C1=NSC2=NC(=O)/C(=C\c3ccc(OC(=O)c4ccco4)cc3)C(=N)N21`, the Potency was active: 56.2 µM. In the case of `CCS(=O)(=O)N1Cc2ccccc2CC1C(=O)OCC(=O)Nc1ccc(SC(F)F)cc1` (configuration not stated), the Potency is reported as inconclusive: 15.8 µM [inhibitor, partial curve, poor fit]. `COc1ccccc1OCCn1c(SCC(=O)O)nc2ccccc21` was tested, and the Potency was active: 22.4 µM. For `CC1(C)CC(=O)c2cnc(NC(=O)Cc3ccc(Cl)cc3)nc2C1`, the Potency was inconclusive: 79.4 µM [inhibitor, partial curve, poor fit]. In the case of `COc1ccc(OC)c(NC(=O)CCc2c[nH]c3ccccc23)c1`, the Potency is reported as inconclusive: 89.1 µM [inhibitor, partial curve, poor fit]. `COc1ccc(-c2c(C)c3ccc(O)c(CN4CCOCC4)c3oc2=O)cc1OC` was tested, and the “activity change, negative = inhibition” value was inactive: -11.3%. For `CC(=O)Nc1ccc(C(=O)Nc2cccc(-c3cnc4ccccc4n3)c2)cc1`, the Potency was inconclusive: 10 µM [inhibitor, full curve]. For `CC1CCN(C(=O)Cn2c(-c3cccs3)cc3cc(Cl)ccc32)CC1`, the Potency was inconclusive: 89.1 µM [inhibitor, partial curve, poor fit]. With `O=C(O)c1cccc(S(=O)(=O)Nc2ccc3oc(=O)sc3c2)c1` the Potency was inconclusive: 15.8 µM [inhibitor, full curve]. For `C=CCOn1c(C)c(C(C)=O)c2c3nonc3ccc21`, the Potency was inconclusive: 28.2 µM [inhibitor, partial curve, poor fit]. For `CCN1CCN(Cc2c(O)ccc3oc(C)c(C(=O)Nc4cccc(C(F)(F)F)c4)c23)CC1`, the “activity change, negative = inhibition” value was inactive: -16%. With `CC1(O)CC(c2ccc(Cl)cc2)=NN1C(=O)c1ccc([N+](=O)[O-])cc1` (configuration not stated) the “activity change, negative = inhibition” value was inactive: -4.24%. `CCN(CC)CCn1c2ccccc2c2cnc(N)c(C#N)c21` was tested, and the Potency was inconclusive: 25.1 µM [inhibitor, partial curve, poor fit]. With `Cc1ccc2cc(C3CC(c4ccco4)=NN3S(C)(=O)=O)c(Cl)nc2c1` (configuration not stated) the “activity change, negative = inhibition” value was inactive: -3.36%. In the case of `COc1ccc(C(=O)N/N=C/c2ccccn2)cc1`, the Potency is reported as inconclusive: 89.1 µM [inhibitor, single point]. `O=C(CNC(=O)c1ccco1)N=Nc1c(O)[nH]c2ccc([N+](=O)[O-])cc12` was tested, and the Potency was inconclusive: 50.1 µM [inhibitor, partial curve]. For `Cn1c(SCC(=O)c2ccc3c(c2)Cc2ccccc2-3)nnc1-c1ccccc1`, the Potency was active: 8.91 µM. For `O=C1ON(Cc2ccccc2)C(c2ccccc2)N1c1ccccc1` (configuration not stated), the Potency was inconclusive: 44.7 µM [inhibitor, partial curve, poor fit]. In the case of `CN(C)C(=O)C#Cc1ccccc1`, the “activity change, negative = inhibition” value is reported as inactive: -6.84%. In the case of `COc1cc(OC)c(N(C)C(=O)Nc2cn(CC(C)C)c(=O)c3ccccc23)cc1Cl`, the “activity change, negative = inhibition” value is reported as inactive: -3.39%. In the case of `O=c1cc(-c2ccc(O)cc2)oc2c(-c3c(O)cc(O)c4c(=O)cc(-c5ccc(O)cc5)oc34)c(O)cc(O)c12`, the Potency is reported as active: 25.1 µM. `COc1ccccc1CNC(=O)C(C)NS(=O)(=O)c1ccccc1` (configuration not stated) was tested, and the Potency was inconclusive: 39.8 µM [inhibitor, single point]. For `CC(=O)N1CCc2cc(S(=O)(=O)CCC(=O)NCc3cccs3)ccc21`, the “activity change, negative = inhibition” value was inactive: 7.38%. For `CC1=NN(c2ccccc2)C(=O)/C1=C\C=C\c1ccccc1`, the Potency was active: 79.4 µM.
